Here are results for 111 molecules from PubChem BioAssay AID1240 (Sanford-Burnham Center for Chemical Genomics, 2008).

Screen size: about 50,000 compounds; about 800 (1.6%) showed an effect of 50% or more. The list shows a part of the results.

The experiment has as its target Bcl-2-like protein 10 (Homo sapiens) (UniProt Q9HD36). Put plainly: Phenotype converters, Bcl-B/TR3 peptide binding displacement, primary biochemical FP (AID 1240).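 Also: 0% = Bcl-B with tracer peptide and DMSO and 100% = tracer peptide lacking Bcl-B.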 The conditions noted are these: GST-Bcl-B / FITC-TR3 peptide fluorescence polarization; stronger effect = higher value; compound at 3.75 mg/L. In general terms: Polarisation of emitted light reports the rotation of a fluorescent probe.
UniProt Q9HD36, sequence (Q9HD36 whole entry, looked up): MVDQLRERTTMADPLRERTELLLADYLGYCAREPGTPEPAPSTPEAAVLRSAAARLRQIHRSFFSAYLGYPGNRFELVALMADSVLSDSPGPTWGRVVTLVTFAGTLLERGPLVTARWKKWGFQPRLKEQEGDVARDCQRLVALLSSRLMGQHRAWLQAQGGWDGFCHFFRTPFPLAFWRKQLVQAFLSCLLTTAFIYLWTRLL
Consider `COc1cccc(NC(=O)c2ccccc2C(F)(F)F)c1`, for which the displacement was found to be 2%.

For the molecule `O=C1CC(c2ccccc2)CC2=C1C(c1cc(Br)ccc1F)Nc1ccccc1N2` (stereo unspecified), the displacement stood at 6.4%.

`Cc1cc(I)ccc1NC(=O)COc1ccc(Br)cc1`: the displacement is 6.5%.

On to `COc1cccc(NC(=O)c2ccc(CN3CCc4ccccc4C3)cc2)c1`, for which the displacement was found to be 28.6%.

With `Cc1ccccc1NC(=O)C(C)NC(=O)C12CC3CC(CC(C3)C1)C2` (stereo unspecified), the displacement is -4.2%.

As to `COc1ccc(/C=N\N2CCN(c3ccccc3OC)CC2)cc1OC`, the displacement is -6.7%.

With `COc1ccc2ccccc2c1/C=C(\C#N)C(=O)NCC1CCCO1` (stereo unspecified), the displacement was -13.8%.

For the molecule `CC1=CC(C)(C)N(C(=O)CN2C(=O)c3ccccc3C2=O)c2cc(C)ccc21`, the displacement worked out at 2.6%.

With `COc1ccc(-c2nc(-c3ccccn3)no2)cc1OC`, the displacement was determined as 2.4%.

In the case of `CCOC(=O)c1sc(NC(=O)C2CCCCC2C(=O)O)nc1C` (stereo unspecified), the displacement is -8.9%.

For `COc1cc(C(=O)NCc2ccccc2F)cc(OC)c1OC`, the displacement is -2.9%.

As for `Cc1nc(NC(=O)C2C3CCC(C3)C2C(=O)O)sc1-c1ccccc1` (stereo unspecified), the displacement was -5.1%.

For `O=C1NN(c2ccccc2)C(=O)/C1=C/c1c(Cl)cccc1Cl`, the displacement was determined as 18.4%.

As to `CC(=O)NCC(O)(c1ccc(C)cc1)c1ccc(C)cc1`, the displacement was -14.1%.

Consider `COc1ccc(Oc2coc3c(CN4CCOCC4)c(O)ccc3c2=O)cc1`, for which the displacement is 0.1%.

As to `CCOC(=O)C1=C(C)N(c2ccccc2)C(C)=C(C(=O)OCC)C1c1ccc([N+](=O)[O-])cc1`, the displacement worked out at 16.7%.

In the case of `COc1ccc(Oc2ccc(Oc3ccc(OC)cc3)cc2)cc1`, the displacement amounted to 14.6%.

As to `CSc1ccc(C2NC(=O)CCC2[N+](=O)[O-])cc1` (stereo unspecified), the displacement was -9.5%.

As for `CCOc1ccc(N(CC(=O)Nc2ccc(C)cc2C)S(=O)(=O)c2ccc(SC)cc2)cc1`, the displacement was found to be 0.6%.

For the molecule `COCC(O)Cn1c2ccccc2c2ccccc21` (stereo unspecified), the displacement was -7.8%.

Turning to `COc1ccccc1C(=O)Nc1nc(C)c(C(C)=O)s1`, the displacement came out at 2.4%.

With `COc1ccccc1NC(=O)C1=C(C)NC(=O)NC1c1cc(C)cs1` (stereo unspecified), the displacement is -1.9%.

On to `CC1CC(C)(C)CC2(C1)NC(=S)N(c1ccccc1)N2` (stereo unspecified), for which the displacement was -5.8%.

For `Fc1ccc(CNC(=S)Nc2ccc(Cl)cc2Cl)cc1`, the displacement is -5.1%.

Take `CCCC(=O)Nc1cccc(-c2nc3ccccc3s2)c1`: the displacement was -15.3%.

With `O=C(Nc1cccnc1)C1CC2CCC1C2` (stereo unspecified), the displacement stood at 14.8%.

Regarding `O=C1CC(NCCCc2ccccc2)C(=O)N1c1ccc(Cl)cc1` (stereo unspecified), the displacement was -3.8%.

Turning to `COc1ccc(C2CC(=O)CC(=O)C2)cc1`, the displacement was 5.9%.

Consider `Cc1ccc(C(=O)O/N=C(/N)c2nonc2N)cc1`, for which the displacement came to 5.6%.

For `COc1ccc(C(=O)CC(Nc2ccc(Br)cc2)c2ccc(F)cc2)cc1` (stereo unspecified), the displacement was -18.5%.

Consider `O=C(CCCN1C(=O)/C(=C/c2ccccc2)SC1=S)Nc1ccccc1C(=O)O`, for which the displacement was 2%.

Regarding `O=C1N=C(N2CCCC2)S/C1=C\c1ccc([N+](=O)[O-])cc1`, the displacement is -22.4%.

On to `CCOC(=O)C1=C(C)NC(=O)NC1c1cc(OC)c(OC)cc1OC` (stereo unspecified), for which the displacement is 8.7%.

On to `CCOc1ccc(NC(=O)C2=C(C)NC(=O)NC2c2ccc(Cl)cc2Cl)cc1` (stereo unspecified), for which the displacement was -2.1%.

Regarding `CCOC(=O)c1cn(-c2ccc(F)c(F)c2)c2c(F)c(F)c(F)c(F)c2c1=O`, the displacement is -21.1%.

For the molecule `N/C(=N\OC(=O)c1ccc(Br)cc1)c1ccncc1`, the displacement amounted to 5.1%.

For the molecule `O=C1c2cccc3cccc(c23)C(=O)N1CCN1CCN(S(=O)(=O)c2ccc(Cl)cc2)CC1`, the displacement is -8.5%.

Turning to `O=c1[nH]c(=O)n(-c2ccccc2Cl)c(O)c1C=Nc1ccc2c(c1)OCO2`, the displacement amounted to 7.6%.

`CC1(C)CC(=O)c2cc(-c3ccccc3)n(CC(=O)OCN3C(=O)c4ccccc4C3=O)c2C1`: the displacement is 7.1%.

For `COc1cc([N+](=O)[O-])cc(/C=C2/C(=O)NC(=O)N(c3ccc(C)cc3)C2=O)c1O`, the displacement is 9.4%.

Regarding `Cc1[nH]n(-c2ccccc2)c(=O)c1C=Nc1cccc(Cl)c1`, the displacement is -3%.

For `CC(=O)N1c2ccccc2CCc2ccc(N)cc21`, the displacement is -2%.

In the case of `Cc1ccc(-n2nc3cc(C)c(NC(=O)c4oc5ccccc5c4C)cc3n2)cc1`, the displacement stood at 14%.

Consider `COc1ccc(C2=C/C(=C3\OC(=O)c4ccccc43)C(=O)O2)cc1OC`, for which the displacement was -48.1%.

As for `O=C(O)c1ccccc1C(=O)OCCCC(F)(F)C(F)(F)F`, the displacement is -7.3%.

In the case of `O=C1S/C(=C/c2ccc(Cl)cc2Cl)C(=O)N1CN1CCCCC1`, the displacement was found to be 12.4%.

Consider `S=C(NCCC(c1ccccc1)c1ccccc1)Nc1ccc(Cl)cc1`, for which the displacement is -12.3%.

With `O=C(Nc1ccc(Sc2ccccc2[N+](=O)[O-])cc1)c1ccccc1`, the displacement was -13.5%.

As for `COc1ccc(NC(=O)c2cc([N+](=O)[O-])ccc2N2CCOCC2)cc1`, the displacement was -1.7%.

For `Cc1ccc(/C=C/C(=O)N2CCN(c3ccccc3)CC2)o1`, the displacement was determined as 3.6%.

On to `COc1ccc(CNC(=O)CSc2ccccn2)cc1`, for which the displacement is 5.6%.

For the molecule `COc1ccc(CSc2ncn[nH]2)cc1`, the displacement is 4.6%.

For the molecule `C=CCNC(=S)N1CCN(CCNC2=CC(=O)CC(C)(C)C2)CC1`, the displacement is -10.1%.

Turning to `COC(=O)c1ccc(C(=O)OC)c(NS(=O)(=O)c2ccc(NC(C)=O)cc2)c1`, the displacement was 8.6%.

Regarding `CC1(C)C(c2ccccc2)=NC(c2ccc(F)cc2)N1O` (stereo unspecified), the displacement came to 0.3%.

`Cc1c(Cl)cccc1NC(=O)c1cc2nc(-c3cccs3)cc(C(F)(F)F)n2n1`: the displacement was found to be 12.7%.

Consider `COc1ccc(S(=O)(=O)N(CC(=O)NCc2ccccc2)Cc2ccccc2)cc1`, for which the displacement is -3.2%.

Take `Cc1cc(OCC(N)=O)ccc1Cl`: the displacement is 8.2%.

As for `COc1ccccc1/C=C1\SC(=S)N(NC(=O)c2ccccc2O)C1=O`, the displacement worked out at 0.3%.

For the molecule `O=[N+]([O-])c1cc(-c2nnc(-c3ccc(Br)o3)o2)cc([N+](=O)[O-])c1`, the displacement is -9.2%.

Turning to `CCOCCOC(=O)c1ccc(NC(=O)COc2ccc(C)cc2C(C)(C)C)cc1`, the displacement was -7.9%.

Consider `COc1ccc(C(=O)NNC2=Nc3cccc4cccc2c34)cc1`, for which the displacement was -17.1%.

With `C=CCc1ccccc1OCC(=O)N/N=C/c1cccc(I)c1`, the displacement turned out to be 0%.

In the case of `COc1ccc2c(c1OC)C(=O)OC2Nc1cccc(F)c1` (stereo unspecified), the displacement was -0.4%.

Take `Cc1cccc(NC(=O)COc2ccccc2)n1`: the displacement was 13.2%.

As for `O=C1C=CC(=O)N1c1ccc(Cc2ccc(N3C(=O)C=CC3=O)c(Cl)c2)cc1Cl`, the displacement was found to be 0.5%.

As to `CCCCc1ccc(NC(=O)c2ccc([N+](=O)[O-])o2)cc1`, the displacement was -6.4%.

Regarding `COc1ccc(OC(C)C(=O)Nc2ccccc2Cl)cc1` (stereo unspecified), the displacement was determined as 9.5%.

Take `O=C(c1ccco1)N1CCN(C2CCC(c3ccccc3)CC2)CC1` (stereo unspecified): the displacement is 0.3%.

In the case of `C=CCOCCN(CCOCC=C)C1=NS(=O)(=O)c2cc([N+](=O)[O-])ccc21`, the displacement was found to be 5%.

Take `CCCOc1cccc(C(=O)Nc2ccc(F)cc2)c1`: the displacement was -1.9%.

With `Nc1nc(-c2ccc(F)c(F)c2)cs1`, the displacement was -8.4%.

`Cc1ccc2nc(-c3ccc(NC(=O)c4cccc(Cl)c4Cl)cc3)sc2c1`: the displacement was -0.5%.

For the molecule `COc1c(Cl)cc(C(=O)Nc2ccc(Cl)c(-c3nc4ccccc4o3)c2)cc1Cl`, the displacement is 2.3%.

Take `CSc1nc2c(cc1C#N)CCCC2`: the displacement is -7.3%.

On to `Cc1ccc(CNC(=O)C(=O)Nc2cccc(C(F)(F)F)c2)cc1`, for which the displacement turned out to be 5.4%.

Consider `Clc1ccc(-c2ccc(/C=N/Nc3nc4ccccc4s3)o2)cc1`, for which the displacement turned out to be 1.8%.

Take `COc1ccc([N+](=O)[O-])cc1NC(=O)c1ccc(N(C)C)cc1`: the displacement came out at 3%.

As for `O=C(/C=C/c1ccco1)Nc1cc(Cl)ccc1C(=O)O`, the displacement amounted to 11.6%.

As to `O=c1c([N+](=O)[O-])c(NC2CCCCC2)c2ccccc2n1-c1ccccc1`, the displacement amounted to 13.4%.

In the case of `C=CCNC(=O)COc1ccc2ccccc2c1`, the displacement is 7%.

For the molecule `O=C1Nc2ccccc2C1=Cc1nc2ccccc2c(=O)n1-c1cccc([N+](=O)[O-])c1`, the displacement turned out to be 3.3%.

Consider `O=C(Nc1ccc(Nc2ccccc2)cc1)c1cccc(I)c1`, for which the displacement amounted to 12.6%.

With `CCCC(=O)Nc1ccc(Br)cn1`, the displacement is -4.2%.

Regarding `O=C1c2ccc3c4c(ccc(c24)C(=O)N1c1ccccc1O)C(=O)N(c1ccccc1O)C3=O`, the displacement is 6.8%.

For the molecule `CC1CCC(N2CCN(C3CCN(Cc4ccccc4)CC3)CC2)CC1` (stereo unspecified), the displacement is -0.4%.

Take `CCOC(=O)N1CCN(c2cc(C)c(C(C)=O)cc2F)CC1`: the displacement is -5%.

For `COc1ccc(S(=O)(=O)N(CC(=O)NCc2ccco2)Cc2ccccc2)cc1OC`, the displacement was 13.4%.

Regarding `COc1ccc(Br)cc1C(=O)Nc1cc(Cl)cc(Cl)c1`, the displacement was 15.4%.

`CCOC(=O)C1CCN(C(=O)c2ccccc2Br)CC1`: the displacement was -3.4%.

With `CC1CCC2(CC1)NC(=S)c1c(sc3c1CCC(C)C3)N2` (stereo unspecified), the displacement is -14.8%.

As for `O=C1NC(=S)NC(=O)C1=Cc1ccc(Oc2ccc([N+](=O)[O-])cn2)cc1`, the displacement stood at 10.5%.

`Cc1ccccc1CC1S/C(=N\N=C\c2ccco2)NC1=O` (stereo unspecified): the displacement was 21.2%.

As for `CC(=O)Oc1ccc(C(=O)Nc2ccc3c(c2)C(=O)N(c2ccccc2)C3=O)cc1`, the displacement is 5.3%.

On to `CCCc1ccc(-c2nc(Cc3c(F)cccc3Cl)no2)cc1`, for which the displacement is 12.4%.

On to `COc1ccccc1N1C(=O)/C(=C/c2cccc(Cl)c2)SC1=S`, for which the displacement was 11.4%.

On to `CCc1c(C)sc(NC(=O)c2sc3ccccc3c2Cl)c1C#N`, for which the displacement was found to be 44.7%.

In the case of `CCOC(=O)C1=C(O)CSC1=Nc1ccc([N+](=O)[O-])cc1`, the displacement was 112%.

For the molecule `CC1=C(C(=O)OCCc2ccccc2)C(c2ccc(Cl)c([N+](=O)[O-])c2)C2=C(CCCC2=O)N1` (stereo unspecified), the displacement came out at 4.5%.

Turning to `N#C/C(=C/c1ccc(I)o1)c1nc2ccccc2[nH]1`, the displacement came to 6.1%.

As to `C#CC(C)(C)NC(=O)CN(c1cc(Cl)ccc1OC)S(=O)(=O)c1ccc(C)c([N+](=O)[O-])c1`, the displacement amounted to 10.3%.

Regarding `O=C1c2ccccc2C(=O)N1CC#CCN1CCN(C(c2ccccc2)c2ccccc2)CC1`, the displacement was -11.8%.

For the molecule `CCC1(C)NC(=S)N2N1C(=S)NC2(C)CC` (stereo unspecified), the displacement came to 0.6%.

For the molecule `COC(=O)Cn1c(=N)n(Cc2ccc(C)cc2)c2ccccc21`, the displacement was -3%.

Take `Cc1ccc(-c2ccc(OCC(=O)NC(C)c3ccccc3)cc2)cc1` (stereo unspecified): the displacement was -2.5%.

For `O=C(C=C(Cl)Cl)c1ccc([N+](=O)[O-])cc1`, the displacement was 7.4%.

For `C/C(=N/NC(=O)CNc1ccc(C)cc1)c1ccc([N+](=O)[O-])cc1`, the displacement was 6.5%.

As to `COc1cc(/C=N/n2cnnc2)cc(I)c1OCCOc1ccc(C(C)(C)C)cc1`, the displacement was -23.8%.

`O=C(CSc1ccc(C(=O)O)cc1)Nc1ccccc1`: the displacement was 5.2%.

Take `CCOC(=O)c1c(NC(=O)Cc2cccs2)sc(C(=O)N2CCOCC2)c1C`: the displacement is -10.4%.

In the case of `Cc1ccccc1NC1(c2ccccc2Cl)C(=O)c2ccccc2C1=O`, the displacement is 14.3%.
